Measurements published in the antibiotic and cytotoxicity screens of Wong et al. (2023).
The other results are listed elsewhere or left out.

Experiments:
[1] = system: HSkMC (human skeletal muscle cells); experiment: cytotoxicity call (relative viability < 0.9); details: 10 µM
[2] = system: HepG2; experiment: cytotoxicity call (relative viability < 0.9); details: 10 µM
[3] = system: S. aureus RN4220; experiment: growth inhibition call (relative growth <= 0.2); details: 50 µM

Compound | cytotoxicity call [1] | cytotoxicity call [2] | growth inhibition call [3]
Cc1noc(C)c1S(=O)(=O)Nc1ccc2c(c1)C(=O)N([C@@H](C)CO)C[C@@H](C)[C@H](CN(C)C(=O)Nc1ccc3c(c1)OCO3)O2 | inactive | inactive | inactive
CO[C@H]1CN(C)C(=O)c2ccc(NC(=O)CC(F)(F)F)cc2OC[C@@H](C)N(S(=O)(=O)c2cn(C)cn2)C[C@@H]1C | inactive | inactive | inactive
COc1ccc(CN(C)C[C@H]2OCCCC[C@@H](C)Oc3ccc(NS(=O)(=O)c4ccc(C)cc4)cc3C(=O)N([C@H](C)CO)C[C@@H]2C)cc1 | inactive | inactive | inactive
C[C@H](CO)N1C[C@H](C)[C@H](CN(C)Cc2ccc(C(F)(F)F)cc2)Oc2ccc(NC(=O)Cc3cn(C)c4ccccc34)cc2CC1=O | inactive | inactive | inactive
CCC[C@@H](O)C#Cc1cnc2c(c1)C(=O)N([C@H](C)CO)C[C@H](C)[C@H](CN(C)S(=O)(=O)c1ccc(OC)cc1)O2 | inactive | inactive | inactive
C[C@@H]1CN([C@@H](C)CO)C(=O)Cc2cc(NC(=O)c3ccncc3)ccc2O[C@@H]1CN(C)S(=O)(=O)c1cn(C)cn1 | inactive | inactive | inactive
Cc1ccc(S(=O)(=O)N(C)C[C@H]2Oc3ccc(NC(=O)NC(C)C)cc3CC(=O)N([C@@H](C)CO)C[C@@H]2C)cc1 | inactive | inactive | inactive
C[C@@H]1CN([C@@H](C)CO)S(=O)(=O)c2ccc(C#Cc3ccncc3)cc2O[C@@H]1CN(C)S(=O)(=O)c1ccc(F)cc1 | inactive | active | inactive
